Among the data in the RNAGym collection of RNA variant scans (doi:10.7554/elife.90254) are self-cleavage values, retold here.

First the molecules themselves.
B1: OR4K15 (parent)
chain: GUUAACGGUCAUAGGCCAUGGAAACUAGGAGCACCAUUUCGCUGCCAGUGAAGAAAUGAACAAAGAAAAUCUGGGCCAGGCAGGCAUCAAAAGAAAUAGUCUUGCGCUCAACCAGAAAGUCUGUAAUCAUUUUAAGGGUA

The source gives no read counts; variants with many changes may rest on few reads.

This data set covers variants of B1. Nature of the data set: self-cleavage, relative activity (ratio to wild type); higher = more cleavage; in vitro, sequencing; the parent is a self-cleaving ribozyme.
On to A51G A96G U103C, for which the self-cleavage is 0.9. For A51G A69U U102A, the self-cleavage was found to be 1.17.

As for A51U A60U G75C A89G A116G, the self-cleavage amounted to 0.06. As for A51G U97C A110G A135G, the self-cleavage was 0.2. For the variant A52G A60U A95G U108C, the self-cleavage came out at 0.01. With A52C A60U A68G the figure was 1.49; with A52G A94U U102C U122C, 2.07; with A51G U57A A116G, 0.46. With A52G A62G A64C C105U, the self-cleavage was 0.01. A52G A55G U72A: the self-cleavage worked out at 0.47. In the case of U49G A60G U70C A91G, the self-cleavage turned out to be 0.34.

In the case of A51G A54G A129G, the self-cleavage amounted to 0.85.

Consider A51G A96G U130A, for which the self-cleavage is 0.46. For A51U A114U U127A, the self-cleavage was determined as 0.03. Turning to A52G A60G A82G U97G, the self-cleavage amounted to 0.64. Consider U49C U70C A95G, for which the self-cleavage came to 1.75. On to U49C A68G A117G A129U U131C, for which the self-cleavage worked out at 0.86.

For A52G U57C A90G, the self-cleavage came out at 1.04. A52G A98G A114G: the self-cleavage amounted to 0.2. With A52G A82G U130G, the self-cleavage worked out at 0.2. A51G U102C U108C: the self-cleavage was 0.01.

As for A51G A114G A129G, the self-cleavage turned out to be 0.04. In the case of A51U A56G A59G C105U A114G, the self-cleavage was 0.07. With A51G G119U G136U, the self-cleavage came out at 1.12. With A51G G80A U108C the figure was 0.02; with A52G U57C A62G A116U, 0.2.

Consider U49G U57A A111G G123A A126G, for which the self-cleavage came to 0.

With U49C U72A A114G, the self-cleavage turned out to be 0.06. As for A51G U102G U122C A129G G137U, the self-cleavage turned out to be 0.55. Take A51G A78G A134U: the self-cleavage was 0.12. In the case of A52G U100C A117U A135G, the self-cleavage came to 0.82. Regarding G50A A52G A67G, the self-cleavage amounted to 0.43. A51G A92G A94G G99A: the self-cleavage was found to be 0.48. With A51G A67G A117G, the self-cleavage was 1.44. Under A51G A52G G115A stands 0.04; under A51G A86G U130C, 0.44. On to A51G G75C U102C U130C, for which the self-cleavage turned out to be 0.17. Regarding A51G A67G U70C A91G U132C, the self-cleavage was 0.56.

Regarding U49C A114U G123A, the self-cleavage came out at 0.12.

Take U49C U100C G104A: the self-cleavage was found to be 0.03. Take A52G A56G A62G: the self-cleavage was 0.66. A51G A54G A117G: the self-cleavage was 0.82. For A52G A59G U102C A114G, the self-cleavage was 0.21. As to U49C A64G A67G U102C U103G A110G A117G A135G, the self-cleavage is 0. On to A52G A60G C71A, for which the self-cleavage amounted to 0.47. Consider A52G A89G A95G, for which the self-cleavage came out at 2.72.

As to A52G A62U A91U A92G, the self-cleavage turned out to be 1.99.

For the variant U49C A64G U100A U122C, the self-cleavage was 1.08. As for A52G A54C A86G, the self-cleavage amounted to 1.46. As for A51G A56G A69U, the self-cleavage is 0.85. Under A52G A114G U124C A140G stands 0.08; under A51G A89U A94U A96G, 1.32; under U49C A67U U122A, 0.96.

On to A51G A110G C112U C121A, for which the self-cleavage was 0.02. With A52G U103A G123A the figure was 0.91; with U49C U102C U108A A117G, 0.01.

Turning to A52G A89G A92G A111U, the self-cleavage came out at 0.03.

Consider A52G A55G A67G, for which the self-cleavage worked out at 1.08. Under A52G A54U A94G stands 0.24. Turning to A51G A98C U131C, the self-cleavage was found to be 1.07.

As for A51G A126G U132C, the self-cleavage is 0.6. As to G50A A89G C105U A117G, the self-cleavage came to 0.3.

For the variant A51U A98G A114G A126G U131C, the self-cleavage is 0.06. In the case of U49C U70C A118G A140G, the self-cleavage was 0.56.

As for A51G A95G A96C A117G, the self-cleavage was determined as 0.61. For U49C U108A A140G, the self-cleavage worked out at 0.02. Consider A51G A52G C71A, for which the self-cleavage is 0.21. For the variant G50A U57C A90G, the self-cleavage is 0.87. Regarding A52G U103C A111G, the self-cleavage came to 0.

Regarding U49C A92G A111G, the self-cleavage turned out to be 0.01. A51G A95G U108C: the self-cleavage amounted to 0.01. With A52G U100C C101U G137U, the self-cleavage came out at 2.59.

For the variant A52G A55G A78G A118G, the self-cleavage worked out at 0.15. Take A52G G80U A95G: the self-cleavage is 0.08. In the case of A51G A95G U133C, the self-cleavage is 2.83. As for U49C A91G U132C, the self-cleavage came out at 0.91. With U49C A117G A135U the figure was 2.38. With U49C A111C U124A the figure was 0. Take U49C A67G A69G A96G U103C G137U: the self-cleavage came out at 0.13. As for A51G A59G G80A A86G A96G A118G, the self-cleavage was found to be 0.08. Take A51G C61U A64U A96G C128U: the self-cleavage was 1.29. For A51G G80U A111G, the self-cleavage turned out to be 0.01. As to A51U A60G A96U C101U, the self-cleavage worked out at 0.41. A52G A90G A92G: the self-cleavage is 0.89.

As to A52G U72C A111G, the self-cleavage came to 0.03. On to A52G A129G U133C, for which the self-cleavage worked out at 0.61. A52G A56G A68U U108C: the self-cleavage is 0.06. Turning to A51U A94G U127A, the self-cleavage was 1.66. A51G A69U A78U A134G: the self-cleavage amounted to 0.13. With A52G A66U U103A A125G, the self-cleavage is 0.23.

A51G A111G A126G: the self-cleavage came out at 0.04. Turning to A52G A55G U120C, the self-cleavage came out at 1.02. As for G50A A51G A52G A68U U127C, the self-cleavage stood at 1.1.

In the case of A51G A78G A92U, the self-cleavage was found to be 0.5. As for U49C A68G U103C U124C, the self-cleavage stood at 0.57. With A51G A63G A118G A126U U131C the figure was 0.28; with A51G A63G A66U U120C A135G, 1.57. For A52G A86G A89G U100C U108C, the self-cleavage was determined as 0.01. Under A51G C76U U97C U120A U131C stands 0.01. As for A51C A66G U130C, the self-cleavage was determined as 0.58. On to A52G A62U A94G, for which the self-cleavage was 1.81. With U49C A63G U100G the figure was 1.55. Consider A52G A118G A134U, for which the self-cleavage amounted to 1.86. G50A U87C A134G: the self-cleavage came to 1.67. For A52G A59G U72C A86G, the self-cleavage is 0.23. On to A51G A52U A78G U124A, for which the self-cleavage is 0.13. Turning to A51G A126G A140G, the self-cleavage turned out to be 1.14. For the variant A51G A126G A140U, the self-cleavage came out at 1.59. Turning to A51U A56G A92G, the self-cleavage came to 1.01. A51G A78U U103C: the self-cleavage was 0.16. In the case of A52G A78G A118G A125G, the self-cleavage stood at 0.01. Under U49C A69G A78C U87A A96U stands 0.18; under A51U A69G U108C, 0; under A51G A62G A95G, 1.85. Under A51U A66U U100C A117U A118G stands 1.78; under U49C A98G A118G, 0.18; under A52G A59U A60C, 0. Regarding U49C A129C U130A, the self-cleavage turned out to be 0.9. Turning to A51G A62G A86G A129U, the self-cleavage is 0.53. On to G50A A98G U124A, for which the self-cleavage was 0.26.

As to A52G A62G U131C, the self-cleavage came to 0.91. In the case of A51G A91G A126G U131C, the self-cleavage was determined as 0.98.

As to A52G A91G A92G A116G A125G A126G, the self-cleavage came out at 0.08. Turning to A52G A82G A117G, the self-cleavage amounted to 0.7.

As for A51U A52G A92G A114G, the self-cleavage came out at 0.35. Under U49G U103C A134G G138U stands 0.64; under U49C U100C U127A, 2.74; under A51G A82G A94G G137U, 0.5.

A51U A94U U122C: the self-cleavage was found to be 1.72. For A51G U72C A95G U108C A116G A126U, the self-cleavage is 0.01. With A51U A56G A64G A96G the figure was 1.62. Regarding A52G G53U A118G, the self-cleavage is 0.95.

Turning to A51G A62U A63G A66U U87C C105U A110G, the self-cleavage came out at 0.05. Consider A52G A86G A92G, for which the self-cleavage was determined as 0.49.

On to U49C U70C A92G A111G A114U, for which the self-cleavage was 0.01. For the variant A51U U87C U131C, the self-cleavage came out at 0.01. For the variant A52G A64G A68G, the self-cleavage was 0.89. As to A51G A111G U120A, the self-cleavage came out at 0.01. With A51U C76U A92U U120C the figure was 0.1; with A51G A55G A69G G104A, 0.01; with A52G A78G A126G A134G G137A, 0.06. Regarding A52G A59G A63G G123C, the self-cleavage stood at 0.4. In the case of U49C U102C U108C, the self-cleavage turned out to be 0. With U49C U57C U124C, the self-cleavage amounted to 0.79. Regarding A51G A68G U120G, the self-cleavage was determined as 2.07. Under U49C U57A U103G A111G stands 0.01. As to U49C G53U A56G U57C A135G, the self-cleavage came out at 0.92.

For the variant A52G U70C A89G U108C A117G, the self-cleavage is 0. With A51G A52G A111U the figure was 0.14; with A51G A64G U100C U133A, 1.61. On to A52G A90G A95G C112U, for which the self-cleavage is 0.03. For the variant A51G A62G U103A, the self-cleavage amounted to 0.79. With A52G U70C A126G, the self-cleavage amounted to 0.85. As to A51G U100C A117G, the self-cleavage was 2.54. In the case of A51G A69G G79A, the self-cleavage came out at 0.04.

As to A52G A56G A63G, the self-cleavage is 0.99. Take A51G U70C U87C: the self-cleavage was 0.63. With A51U A60G A111G A129U, the self-cleavage was determined as 0.

Regarding A51U A64G A116G, the self-cleavage came to 1.38. With A52G U57C U87C the figure was 1.69; with U49C G99A U108C, 0.01. Regarding A52G A60U A116G, the self-cleavage is 1.46.

On to U49C U87C U102G U139A, for which the self-cleavage stood at 0.12.

With A51G A94G A118G, the self-cleavage was 1.2. With A52G A63U A91G the figure was 0.96; with U49C U102A U130C, 0.28; with A51U A118G U122A, 1.19.
